Experimental data: PubChem BioAssay AID686970 (National Center for Advancing Translational Sciences (NCATS), 2013)
Out of some 360,000 compounds screened, about 6,000 (1.7%) were called active. Inconclusive results, whose numbers are uncertain, are shown with a selection of clear calls. The call rests on the fitted dose curve; in most records, active means well fitted cell-killing curve with a large enough effect; inconclusive means small, poorly fitted or top-dose-only effect, or effect the other way; inactive means flat fitted curve, though single readings scatter. Potencies of inconclusive entries are left out as doubtful fits.

Assay: qHTS for induction of synthetic lethality in tumor cells producing 2HG: qHTS for the HT-1080-NT fibrosarcoma cell line;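 further: NT is the 2HG producing partner of a matched IDH1 knockdown line; nearly all actives have a fitted effect of over 55% in size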;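 on activity, negative = less viability: 0% = DMSO-treated cells and -100% = media-only wells without cells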
Conditions: HT-1080-NT fibrosarcoma viability, CellTiter-Glo ATP luminescence, 48 h; activity, negative = less viability: at 46.1 µM (top of the series) unless noted
How it was run: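 Fibrosarcoma NT cells, 750 per well in 5% FBS RPMI, were exposed to compound for 48 hours. Viability: CellTiter-Glo luminescence.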
Potency means the concentration at half of the fitted maximal effect; tags describe the fitted curve by direction and shape.

SMILES | Potency | activity, negative = less viability
O=C(NCCN1CCc2ccccc2C1)Nc1ccc([N+](=O)[O-])cc1 | inactive | –
COc1ccc(-c2nc(Cn3c(SCc4ccc(F)cc4)nc4ccncc43)c(C)o2)cc1OC | active: 23.1 µM | –
Cc1ccc(/C=N/NC(=O)CCCOc2ccc(Cl)cc2Cl)cc1[N+](=O)[O-] | inconclusive [cytotoxic, single point] | –
O=C(NC(=C(Cl)Cl)S(=O)(=O)c1ccc(Cl)cc1)c1ccccc1 | inconclusive [cytotoxic, single point] | –
COc1ccccc1N(C(C)=O)C1=C(Cl)C(=O)c2ccccc2C1=O | active: 18.4 µM | –
CCOC(=O)c1ccccc1NC(=O)Cn1c(-c2nonc2N)nc2ccccc21 | inconclusive [cytotoxic, full curve] | –
O=C(O)c1ccccc1C(=O)NC1Cc2ccccc2C1 | inactive | –
CCOC(=O)/C(C#N)=C/C=C1/C=CC=CN1C | inconclusive [rising, partial curve] | –
COc1ccccc1CNS(=O)(=O)c1ccc2c(c1)CC(C)N2C(=O)C1CC1 (stereo not given) | inconclusive [cytotoxic, single point] | –
Cc1ccc(NC(=O)C2CCN(C(=O)NC3CCCCC3)CC2)cc1 | – | inconclusive: 42.4%
COc1cc(/C=C(\C#N)C(=O)Nc2cccc(C(=O)O)c2)ccc1OCc1ccc(C)cc1 | inactive | –
C#CCOCCOCCOCCNc1nc(N2CCN(C(=O)CCCCCCCCCCNC(=O)[C@H](CO)n3cc(CCCSC)nn3)CC2)nc(N2CCN(C(=O)CCCCCCCCCCNC(=O)[C@H](CCCN=C(N)N)n3cc(C[C@@H](C)CC)nn3)CC2)n1 | inconclusive [cytotoxic, single point] | –
CC(=O)Nc1ccc(C(=O)N/N=C/c2ccccc2OCc2ccccc2)cc1 | active: 16.4 µM | –
O=C1N[C@H](Cc2ccccc2)COC(=O)[C@H](Cc2ccc(F)cc2)C/C=C\C[C@H]1CC(=O)N(CCO)Cc1ccccc1 | inconclusive [cytotoxic, partial curve] | –
O=C(C1CCCN(Cc2nc(-c3ccc(Cl)cc3)no2)C1)N1CCOCC1 (stereo not given) | inconclusive [cytotoxic, partial curve, poor fit] | –
COC(=O)c1cccc(CC2(C)C(=O)Nc3cc(-c4ccccc4Cl)ccc32)c1 (stereo not given) | inconclusive [cytotoxic, single point] | –
COc1ccc(Nc2ncc(C(=O)N3CCN(Cc4ccccc4)CC3)c3ccccc23)cc1 | inactive | –
O=C(CCCCn1c(=S)[nH]c2ccsc2c1=O)NCc1ccco1 | inconclusive [cytotoxic, single point] | –
CCOC(=O)C1CCCN(c2nc3ccccc3nc2C(C#N)C(=O)OCC)C1 (stereo not given) | inconclusive [cytotoxic, single point] | –
COc1ccc(C2CC(=O)C=C(NCc3ccccc3)C2)cc1 (stereo not given) | active: 23.1 µM | –
COc1ccc(CN2CCN(Cc3nc4ccccc4s3)CC2CCO)c(C)c1C (stereo not given) | inconclusive [cytotoxic, single point] | –
C(=Nc1ccc(Nc2ccccc2)cc1)c1ccc2ccccc2c1 | inactive | –
CC1(C(=O)Nc2cccc(C#N)c2)CCN1C(=O)C1(c2ccccc2)CC1 (stereo not given) | inconclusive [rising, single point] | –
Oc1c(Cl)cc(Cl)cc1CNc1ccc(Br)cn1 | inconclusive [cytotoxic, single point] | –

SMILES | Potency | activity, negative = less viability
Cc1cccn2c(=O)c3cc(C(=O)N4COCC4(C)C)n(C)c3nc12 | inconclusive [rising, partial curve] | –
CSC(=NC#N)N1CCN(C(c2ccccc2)c2ccccc2)CC1 | inactive | –
CC(C)c1ccc(C(=O)N2CCCC(c3cc(C(=O)NCc4ccccc4)no3)C2)cc1 (stereo not given) | inactive | –
O=[N+]([O-])c1ccc(N2CCN(C(=S)Nc3ccc(F)cc3F)CC2)cc1 | inactive | –
COC(=O)[C@H](CCSC)NC(=O)Cn1cc(C)c(=O)[nH]c1=O | inactive | –
Cc1ccc(-c2nn(-c3ccccc3)cc2/C=N/O)cc1 | inconclusive [cytotoxic, single point] | –
CC(C)(C)C(=O)Nc1ccc(/C=C/C(=O)c2ccco2)cc1 | inconclusive [cytotoxic, single point] | –
CCn1c(SCC(=O)Nc2ccc3c(c2)oc2ccccc23)nnc1-c1ccc(N)cc1 | inconclusive [cytotoxic, single point] | –
O=C(Nc1nc2ccccc2s1)c1ccc2c(c1)OCO2 | inconclusive [cytotoxic, single point] | –
O=C(Nc1ccc(CN2CCOCC2)cc1)c1ccc(-c2cc(Cl)ccc2Cl)o1 | inconclusive [cytotoxic, single point] | –
O=C(Nc1ccc(OC(F)F)cc1)Nc1cccc(C(F)(F)F)c1 | inconclusive [cytotoxic, single point] | –
C[C@@H]1CN([C@H](C)CO)S(=O)(=O)c2ccc(Br)cc2O[C@@H]1CN(C)C(=O)Nc1ccc(C(F)(F)F)cc1 | inconclusive [cytotoxic, single point] | –
C[C@@H]1CC=C[C@H]2[C@H]1C(=O)N(Cc1ccccc1)[C@H]2c1ccc(/C=C/c2ccccc2)cc1F | inconclusive [cytotoxic, single point] | –
C=CCN1C(=O)[C@@H]2Cc3c([nH]c4ccccc34)C(c3cc(OC)c(OC)c(OC)c3)N2C1=S (stereo not given in full) | inconclusive [cytotoxic, single point] | –
CC/C(=N\NC(=O)c1ccc2c(c1)OCO2)c1ccccc1 | inactive | –
CCOC(=O)c1cc(-c2ccccc2)sc1NC(=O)c1ccc(OC)c(OC)c1 | inactive | –
CCCCCCNC(=O)c1cn(CC)c2cc(N3CCN(C)CC3)c(F)cc2c1=O | active: 16.4 µM | –
Fc1ccc(-c2nnc(NC3=NCCCCC3)o2)cc1 | inconclusive [cytotoxic, single point] | –
NCCNC(=O)Cn1c(=O)c2c3c(sc2n(Cc2ccccc2)c1=O)CCCC3 | inconclusive [cytotoxic, single point] | –
CCN1/C(=C/c2ccc3cccc(C)c3[n+]2CC)Sc2ccccc21 | inconclusive [cytotoxic, partial curve, poor fit] | –
O=C(Nc1ccc(N2CCOCC2)cc1)c1ccc([N+](=O)[O-])cc1 | – | inconclusive: 31.5%
O=C(N/N=C/c1ccc(O)cc1O)C(=O)N/N=C/c1ccc(O)cc1O | inconclusive [cytotoxic, full curve, poor fit] | –
CCn1c(Nc2ccccc2Cl)nc2ccccc21 | inactive | –
COc1ccccc1Cn1c(=S)[nH]c2cc(C(=O)NCCCN3CCOCC3)ccc2c1=O | active: 16.4 µM | –

SMILES | Potency | activity, negative = less viability
O=C(Nc1cccc([N+](=O)[O-])c1)c1ccc2ccccc2c1O | inconclusive [cytotoxic, partial curve, poor fit] | –
CN(C)CCCNc1nc(-c2ccc(Cl)cc2)nc2ccccc12 | inconclusive [cytotoxic, single point] | –
CCN(CC)c1ccc(-c2nn3c(-c4ccccc4OC)nnc3s2)cc1 | active: 1.03 µM | –
CC(C)(C)N(C=C(Cl)Cl)C(=O)NC1CCCCC1 | – | inconclusive: 30.5%
C[C@@H]1COC(=O)[C@@H](Cc2ccc(F)cc2)CC/C=C\C[C@@H](CC(=O)NCCO)C(=O)N1 | inactive | –
COc1ccc(C2CC(c3ccc4ccccc4c3)=NN2C(=O)CNC2CCCCC2)cc1 (stereo not given) | active: 23.1 µM | –
COc1ccccc1CNCc1ccc(OC)c2ccccc12 | active: 14.6 µM | –
Cn1/c(=N\NC(=O)c2ccccc2Cl)sc2ccccc21 | inactive | –
CC(C)(C)NC(=O)CSc1nc(-c2ccccc2)c(-c2ccccc2)[nH]1 | inconclusive [cytotoxic, single point] | –
O=C(Nc1ccccc1)Nc1ccc(Br)c(Cl)c1 | inactive | –
CCOC(=O)c1ccccc1NC(=O)CSc1nc(N)cc(=O)[nH]1 | inactive | –
[O-][N+](=C(c1ccccc1)c1ccccc1)c1ccccc1 | inactive | –
Cc1ccc(C)c(C(=O)CCC(=O)Nc2cccnc2)c1 | inconclusive [rising, single point] | –
CC(Sc1nnc(-c2ccc(Cl)cc2Cl)n1Cc1ccccc1)C(=O)Nc1nccs1 (stereo not given) | inconclusive [cytotoxic, single point] | –
COc1ccc(-c2[nH]c(-c3ccc(C)cc3)nc2SCC(=O)NC2CCCC2)cc1 | inactive | –
O=C(N/N=C/c1ccc([N+](=O)[O-])o1)c1ccc(NS(=O)(=O)c2cccs2)cc1 | inconclusive [cytotoxic, single point] | –
Cc1cc2cc3n(c2nn1)N=C(Cl)CC3 | inconclusive [cytotoxic, single point] | –
COc1cccc(Cn2c(-c3nonc3N)nc3ccccc32)c1 | active: 2.59 µM | –
COc1ccc2c(c1)-c1c(ssc1=S)C(C)(C)N2S(=O)(=O)c1ccc(C)cc1 | inconclusive [cytotoxic, full curve] | –
Cc1cccc(C(=O)N(CCc2ccccc2)Cc2ccccc2)c1[N+](=O)[O-] | inconclusive [cytotoxic, single point] | –
C=CCNc1nc(NCc2ccc(NC(C)=O)cc2)c2sc(-c3ccccc3)cc2n1 | active: 18.4 µM | –
Cc1cc(C)cc(NC(=O)/C=C/c2ccc([N+](=O)[O-])s2)c1 | inconclusive [cytotoxic, partial curve, poor fit] | –
